# Residue numbers refer to the chain shown, from its start.
# B1: 0076#_hIgG4 (Fc fusion)
# chain: EVQLVESGGGLVQPGGSLRLSCAASTYTFKDKCMGWFRQAPGKEREGVSVVDRFGGTIYADSVKGRFTISRDNSKNTLYLQMNSLRAEDTAVYYCAAGSYTSAGSCQPDALWGQGTLVTVSS[omitted - human IgG4 Fc with S228P (EU numbers)]
# B2: 0078#_hIgG4 (Fc fusion)
# chain: B1 chain with G104H
# notes: The text says 0078#
# B3: 32# (Fc fusion)
# chain: QVQLVESGGGSVQAGGSLRLSCAVSGFRYSPILMGWFRQGPGKDREGVASIDSVGATDYADSVKGRFTISRDNAENTLFLQMNSLKPEDTGMYYCAAALMRTYLPLQPRQYDFWGQGTLVTVSS[omitted - human IgG1 Fc]
# notes: also called 32#-IgG1; not shown: linker between VHH and Fc
# B4: 106# (Fc fusion)
# chain: EVQLVESGGGSAQAGGSLRLSCTSSTYTFKNKCMGWFRQAPGKEREGVAVVDRFGGTIYAASVKGRFAISKDDAKNTLDLLMNSLKPEDTAMYYCAAGSYTSANSCQPDALWGQGTQVTVSS[omitted - human IgG1 Fc]
# notes: not shown: linker between VHH and Fc
# B5: 112# (Fc fusion)
# chain: B4 chain with F54Y, T57I, P87A, A103D, N104G, Q117L
# notes: as for B4
# B6: 107# (Fc fusion)
# chain: DVQLVGSGGGSVQVGGSLRLSCAASGYTGNRRYCMGWFRQAPGNEREGVAVINTGANTTYYADSVKGRFTISQDNAKNTVYLQMNSLKPEDTAMYYCGVGWRALCEVNGYVYDSWGQGTQVTVSS[omitted - human IgG1 Fc]
# notes: also called 107#-IgG1; not shown: linker between VHH and Fc
# B7: 7# (Fc fusion)
# chain: HVQLVESGGGSVQAGGSLRLACASSRNTNRYNFMTWFRQAPGKEREGVAAIYTGFGNTYYADSVKGRFTISQDNAKNTVYLQMNSLKPEDTAMYHCAAALRDGSWSSQNYDYWGQGTQVTVSS[omitted - human IgG1 Fc]
# notes: also called 7#-IgG1; not shown: linker between VHH and Fc
# B8: 32#_hu_1 (Fc fusion)
# chain: EVQLVESGGGLVQPGGSLRLSCAASGFRYSPILMGWFRQAPGKGLEGVSSIDSVGATDYADSVKGRFTISRDNSKNTLYLQMNSLRAEDTAVYYCAAALMRTYLPLQPRQYDFWGQGTLVTVSS[omitted - human IgG1 Fc]
# notes: as for B4
# B9: 32#_hu_2 (Fc fusion)
# chain: B8 chain with L45R
# notes: as for B4
# B10: 32#_hu_3 (Fc fusion)
# chain: B8 chain with G44D, L45R
# notes: also called 32#_hu_3-hIgG1; not shown: linker between VHH and Fc
# B11: 61# (Fc fusion)
# chain: HVQLVESGGGSVQAGGSLRLSCAASGYTYSSLCMGWFRQAPGKEREGVATIYTGDSSTYYADSVKGRFTISQDNAKNTVYLQMNSLKPEDTAMYYCAAAYGRRWCERLYMYDSWGQGTQVTVSS[omitted - human IgG1 Fc]
# notes: as for B4
# B12: 107#_hu_4_hIgG4 (Fc fusion)
# chain: EVQLVESGGGLVQPGGSLRLSCAASGYTGNRRYCMGWFRQAPGKEREGVSVINTGANTTYYADSVKGRFTISRDNSKNTLYLQMNSLRAEDTAVYYCGVGWRALCEVNGYVYDSWGQGTLVTVSS[omitted - human IgG4 Fc with S228P (EU numbers)]
# notes: Expressed in HEK293, purified on Protein A
# B13: 32#_hu_3_hIgG4 (Fc fusion)
# chain: EVQLVESGGGLVQPGGSLRLSCAASGFRYSPILMGWFRQAPGKDREGVSSIDSVGATDYADSVKGRFTISRDNSKNTLYLQMNSLRAEDTAVYYCAAALMRTYLPLQPRQYDFWGQGTLVTVSS[omitted - human IgG4 Fc with S228P (EU numbers)]
# notes: Expressed in HEK293, purified on Protein A; also called 32#_hu_3_IgG4
# B14: 7#_hu_4_hIgG4 (Fc fusion)
# chain: EVQLVESGGGLVQPGGSLRLSCAASRNTNRYNFMTWFRQAPGKEREGVSAIYTGFGNTYYADSVKGRFTISQDNSKNTLYLQMNSLRAEDTAVYYCAAALRDGSWSSQNYDYWGQGTLVTVSS[omitted - human IgG4 Fc with S228P (EU numbers)]
# notes: as for B12
# B15: 106#_hu_1_hIgG4 (Fc fusion)
# chain: B1 chain with D31N, G104N
# B16: 61#_hu_1 (Fc fusion)
# chain: EVQLVESGGGLVQPGGSLRLSCAASGYTYSSLCMGWFRQAPGKGLEGVSTIYTGDSSTYYADSVKGRFTISRDNSKNTLYLQMNSLRAEDTAVYYCAAAYGRRWCERLYMYDSWGQGTLVTVSS[omitted - human IgG1 Fc]
# notes: as for B4
# B17: 32#_hu_4 (Fc fusion)
# chain: B8 chain with S49A
# notes: as for B4
# B18: 32#_hu_5 (Fc fusion)
# chain: B8 chain with A24V
# notes: as for B4
# Target: PD-1 on JURKAT-PD-1 cells (Promega) (human, UniProt Q15116 25-288)
# Assay: cell-based or functional assay
row,"解除PD-1/PD-L1阻断的免疫激活的IC50 (NFAT luciferase reporter, Jurkat-PD-1 with CHO-PD-L1 aAPC cells) [nM]",Binder
1,14.2,B1

# Target: T1, 人PD-1全长蛋白 on CHO-PD-1 cells (human, UniProt Q15116 25-288)
# T1 construct: also called 细胞表面抗原PD-1; human PD-1
# Assay: flow cytometry on CHO-PD-1 cells, FITC anti-human IgG
row,binding result,Binder
1,binds,B2

# Target: T2, 筛选及检测用人PD-1抗原 (human PD-1 extracellular domain with His tag, Sino Biological Cat.10377-H08H) (human, UniProt Q15116 fragment)
# T2 construct: Bought product; the entry holds the extracellular domain and the His tag; also called PD-1蛋白
# Assay: ELISA, antibody coated, His-tagged PD-1 titrated, anti-His-HRP
row,EC50 [nM],Binder
1,1.99,B3
2,2.56,B4
3,2.51,B5
4,3.14,B6
5,1.86,B7
6,4.08,B8
7,3.43,B9
8,2.98,B10
9,1.85,B11

# Target: T3, 猴PD-1 (Sino Biological Cat.90311-C08H) (monkey (猴))
# T3 construct: also called monkey PD-1
# Assay: as above
row,EC50 [nM],Binder
1,4.8,B3
2,0.67,B4
3,1.5,B5
4,2.9,B6
5,2.2,B7
6,6.2,B8
7,2.3,B9
8,1.2,B10

# Target: T2, 筛选及检测用人PD-1抗原 (human PD-1 extracellular …)
# Assay: SPR Biacore T200, antibody captured on protein A CM5 chip, PD-1-His as analyte
Kd [nM],koff [s⁻¹],kon [M⁻¹ s⁻¹],Binder
128,0.0012,9400,B12
19.2,0.00201,105000,B13
124,0.00584,47200,B14
86.3,0.000705,8170,B15

# Target: T2, 筛选及检测用人PD-1抗原 (human PD-1 extracellular …)
# Assay: SPR Biacore 8K, antibody captured by anti-human IgG Fc on CM5, PD-1 (SEQ ID NO: 3) as analyte
Kd [nM],koff [s⁻¹],kon [M⁻¹ s⁻¹],Binder
6.35,0.00207,325000,B3
6.01,0.000477,79400,B4
8.1,0.000782,96500,B6
20.4,0.00461,226000,B16
2.06,0.000281,136000,B7
16.3,0.00291,179000,B8
20.2,0.00353,175000,B17
9.36,0.00156,167000,B9
9.11,0.00201,220000,B10
19.6,0.00319,162000,B18
5.33,0.000819,154000,B11

# Source: patent CN114573704A (dated 2022)
